Among all 48,000 compounds or so, about 550 (1.1%) were called active. Not shown: some 4% with an inconclusive outcome. No stated cut-off is given here; in the data, active means potency below about 15 µM; inconclusive means mostly about 16 µM to 33 µM; inactive means weaker than that. Some of the results follow.
Potency means the concentration at half of the fitted maximal effect.

The experiment concerns the target Lysosomal acid glucosylceramidase (Homo sapiens) (UniProt P04062). As to the kind of experiment: Glucocerebrosidase.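 Further: the screen sought inhibitors.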 The settings on record: purified enzyme, resorufin glucoside fluorescence (screen aimed at inhibitors), 20 min. The method, boiled down: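 Normal human glucocerebrosidase (0.2 nM final) was assayed with resorufin β-D-glucopyranoside (30 uM final) in 50mM citric acid/KH2PO4, 10mM sodium taurocholate, 0.01% tween-20, pH 5.9. Compounds were titrated; fluorescence (Ex 548, Em 600) read after 20 min at RT.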
Sequence of UniProt P04062 (P04062 whole entry, looked up): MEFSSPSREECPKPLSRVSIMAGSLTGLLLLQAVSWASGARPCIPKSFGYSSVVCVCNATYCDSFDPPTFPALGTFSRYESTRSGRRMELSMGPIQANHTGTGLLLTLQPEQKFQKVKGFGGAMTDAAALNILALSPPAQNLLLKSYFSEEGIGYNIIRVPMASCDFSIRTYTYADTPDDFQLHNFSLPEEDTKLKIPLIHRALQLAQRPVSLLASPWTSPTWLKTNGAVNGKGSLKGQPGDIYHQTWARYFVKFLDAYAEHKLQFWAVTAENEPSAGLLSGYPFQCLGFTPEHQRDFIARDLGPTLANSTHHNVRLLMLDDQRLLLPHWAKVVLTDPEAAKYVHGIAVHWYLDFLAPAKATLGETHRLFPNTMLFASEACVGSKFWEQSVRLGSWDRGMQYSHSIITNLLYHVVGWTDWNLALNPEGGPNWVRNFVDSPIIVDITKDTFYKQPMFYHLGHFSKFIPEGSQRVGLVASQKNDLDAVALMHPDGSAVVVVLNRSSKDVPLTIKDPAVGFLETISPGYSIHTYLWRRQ
`CCOC(=O)N1CCC(NC(=O)CCC(=O)c2ccccc2)CC1`: the Potency is inactive: > 76.9 µM.

As for `COc1cc2nc(COc3ccc(C#N)cc3)n(CC#N)c(=O)c2cc1OC`, the Potency is inactive: > 76.9 µM.

As for `COc1ccc(C2=NOC(C(=O)N3CCCc4ccccc43)C2)cc1` (stereo not drawn), the Potency was inactive: > 76.9 µM.

On to `CC(=O)c1ncnn1CC(=O)c1ccc(Cl)cc1Cl`, for which the Potency is inactive: > 76.9 µM.

For the compound `COc1cccc(C(=O)OCn2nnc3ccccc3c2=O)c1`, the Potency is inactive: > 76.9 µM.

With `CCCCNC(=O)C(C#N)c1nc2ccccc2nc1N1CCCC1` (stereo not drawn), the Potency is inactive: > 76.9 µM.

`CS(=O)(=O)c1ccc2nc(NC(=O)CCC(=O)c3cccs3)sc2c1`: the Potency is inactive: > 76.9 µM.

Consider `COc1ccccc1-n1cnnc1SCC(=O)c1ccc[nH]1`, for which the Potency is inactive: > 76.9 µM.

With `C=CCC1(O)C(=O)Nc2ccccc21` (stereo not drawn), the Potency is inactive: > 76.9 µM.

As for `COc1ccc2c(c1)CCc1c-2n[nH]c1C(=O)O`, the Potency was inactive: > 76.9 µM.

On to `COC(=O)c1cccc(COC(=O)CNC(=O)c2ccco2)c1`, for which the Potency was inactive: > 76.9 µM.

For `CCOC(=O)c1cc(-c2nnc(-c3cc(OC)c(OC)c(OC)c3)o2)c(C)nc1C`, the Potency is inactive: > 76.9 µM.

For `CC(C)OCC(O)CN1CCN(CC(O)COc2ccc3c(c2)OCO3)CC1` (stereo not drawn), the Potency was inactive: > 76.9 µM.

Consider `COc1ccc(NS(=O)(=O)c2ccc(O)c(C(=O)OCC(=O)N3CC(C)OC(C)C3)c2)cc1` (stereo not drawn), for which the Potency is inactive: > 76.9 µM.

For the compound `COc1ccccc1-c1noc(CCC(=O)Nc2cc(C(F)(F)F)ccc2Cl)n1`, the Potency was inactive: > 76.9 µM.

In the case of `O=C1COc2ccc(C(=O)CSc3nnnn3-c3ccccc3)cc2N1`, the Potency result was “inactive”.

As to `CCOCC(=O)Nc1c(C(=O)OCC)oc2ccccc12`, the Potency was inactive: > 76.9 µM.

For `COc1cc(NC(=O)NCc2ccncc2)cc(OC)c1OC`, the Potency was inactive: > 76.9 µM.

Consider `COc1cc(NC(=O)NCCN2CCN(c3ccc(Cl)cc3)CC2)ccc1C`, for which the Potency was inactive: > 76.9 µM.

On to `COc1cc2c(C(=O)NCCCN3CC(C)CC(C)C3)cn(CC(C)C)c(=O)c2cc1OC` (stereo not drawn), for which the Potency is inactive: > 76.9 µM.

Consider `COc1ccc(CCNC(=O)Cn2c(=O)cnc3ccccc32)cc1`, for which the Potency was inactive: > 76.9 µM.

Consider `O=C1c2oc3ccccc3c(=O)c2C(c2ccc(Br)cc2)N1c1ncccn1` (stereo not drawn), for which the Potency was inactive: > 76.9 µM.

For the compound `O=C(CSc1nnc(-c2ccccc2)o1)c1nnc(-c2ccccc2)o1`, the Potency is inactive: > 76.9 µM.

In the case of `COc1ccc(S(=O)(=O)N2CCCN(CC(=O)C(C)(C)C)CC2)cc1`, the Potency is inactive: > 76.9 µM.

As to `OC(COc1ccc2c(c1)CCC2)Cn1cnc2ccccc21` (stereo not drawn), the Potency result is “inactive”.

Regarding `Cc1nc2ccc(-n3ccc(=O)cc3)cc2s1`, the Potency was inactive: > 76.9 µM.

With `CCOCCCNS(=O)(=O)c1ccc2c(c1)oc(=O)n2CC(=O)OCC`, the Potency was inactive: > 76.9 µM.

In the case of `COC(=O)c1ccc2c(c1)NC1=C(C(=O)CC(C)(C)C1)C(c1ccncc1)N2` (stereo not drawn), the Potency was inactive: > 76.9 µM.

Consider `c1ccc(-c2cc(CSc3nc4ccccc4[nH]3)on2)cc1`, for which the Potency is inactive: > 76.9 µM.

On to `Cc1cc(C)c2c(N)c(S(=O)(=O)c3ccccc3)sc2n1`, for which the Potency is inactive: > 76.9 µM.

On to `COc1ccc(S(=O)(=O)NCc2csc(C)n2)cc1`, for which the Potency was inactive: > 76.9 µM.

As to `O=C(CNCC1CCCO1)Nc1ccccc1N1CCOCC1` (stereo not drawn), the Potency is inactive: > 76.9 µM.

Regarding `O=C1C2C3C=CC(C3)C2C(=O)N1c1nccs1` (stereo not drawn), the Potency is inactive: > 76.9 µM.

Consider `CCN(CC)c1ccc(NC(=O)CN2CCN(CC(=O)Nc3ccccc3F)CC2)cc1`, for which the Potency is inactive: > 76.9 µM.

As for `Cc1sc2ncnc(SC(C)C#N)c2c1C` (stereo not drawn), the Potency is inactive: > 76.9 µM.

In the case of `O=C(c1ccccc1Cl)N1CCc2ccccc2C1`, the Potency was inactive: > 76.9 µM.

Turning to `CCc1nnc(NC(=O)c2ccc(COc3ccc(C)cc3)o2)s1`, the Potency was inactive: > 76.9 µM.

Regarding `O=C(CSc1nnc(Cn2c(=O)sc3ccccc32)n1CCc1ccccc1)N1CCOCC1`, the Potency was inactive: > 76.9 µM.

Turning to `O=C(NCc1ccc2c(c1)OCO2)c1ccncc1`, the Potency was inactive: > 76.9 µM.

On to `CC(C)(C)NC(=O)NC(=O)COC(=O)c1ccco1`, for which the Potency is inactive: > 76.9 µM.

As for `COc1ccc(C(=O)CSc2nnc(CNC(=O)c3ccc(OC)cc3)n2C)cc1`, the Potency was inactive: > 76.9 µM.

Consider `COc1cc2nc(C3CCC3)n(NC(=O)C3CCCC(OC)C3)c(=O)c2cc1OC` (stereo not drawn), for which the Potency is inactive: > 76.9 µM.

Turning to `CCCS(=O)(=O)N1CCC(C(=O)NCCc2ccc(C)cc2)CC1`, the Potency was inactive: > 76.9 µM.

`CNS(=O)(=O)c1ccc(NC(=O)C(CCSC)NC(N)=O)cc1` (stereo not drawn): the Potency was inactive: > 76.9 µM.

Regarding `O=C(Cn1nnc(-c2ccc(S(=O)(=O)N3CCCC3)cc2)n1)NCC1CCCO1` (stereo not drawn), the Potency was inactive: > 76.9 µM.

With `CCC1(CC)C(=O)N(C)C(=O)NC1=Nc1ccccc1`, the Potency is inactive: > 76.9 µM.

Regarding `O=C(CNC(=O)c1ccco1)OCC(=O)c1ccc2c(c1)CCCC2`, the Potency was inactive: > 76.9 µM.

As for `Cc1cc(=O)[nH]c(SCC2(O)C3CC4CC(C3)CC2C4)n1` (stereo not drawn), the Potency was inactive: > 76.9 µM.

With `O=C1CC(N2CCN(Cc3ccc4c(c3)OCO4)CC2)C(=O)N1c1ccccc1` (stereo not drawn), the Potency was inactive: > 76.9 µM.

With `CCCn1c(SCC(=O)NCc2cccs2)nc2c1c(=O)n(C)c(=O)n2C`, the Potency is inactive: > 76.9 µM.

For `Nc1nnc(SCC(=O)N2CCN(c3ccccc3)CC2)s1`, the Potency was inactive: > 76.9 µM.

Consider `O=C(Nc1ccc(S(=O)(=O)N2CCOCC2)cc1)c1cccs1`, for which the Potency was inactive: > 76.9 µM.

With `Cc1nn(-c2cccc(C(=O)O)c2)c(C)c1Oc1ccccc1O`, the Potency is inactive: > 76.9 µM.

As for `CCn1c(N2CCN(CC(=O)c3ccc(OC)cc3)CC2)nc2ccccc21`, the Potency is inactive: > 76.9 µM.

Turning to `COC(=O)C(C)NC(=O)C12CC3CC(CC(C3)C1)C2` (stereo not drawn), the Potency is inactive: > 76.9 µM.

In the case of `O=S(=O)(Nc1nc2ccccc2nc1NCCN1CCOCC1)c1cccc(Cl)c1`, the Potency was inactive: > 76.9 µM.

With `O=C(COc1ccc(Cl)cc1)NCc1nnc(SCC(=O)N2CCCc3ccccc32)o1`, the Potency is inactive: > 76.9 µM.

Consider `CC(NS(=O)(=O)c1ccc(OCC(=O)N2CCOCC2)c(Cl)c1)c1ccccc1` (stereo not drawn), for which the Potency is inactive: > 76.9 µM.

The values above are taken from PubChem BioAssay AID360 (National Center for Advancing Translational Sciences (NCATS), 2006).
